Measured values: doi:10.1101/2021.10.31.466654 (bioRxiv, 2021)

T1: His-tagged CRT (UniProt P27797 18-417)
T1 sequence: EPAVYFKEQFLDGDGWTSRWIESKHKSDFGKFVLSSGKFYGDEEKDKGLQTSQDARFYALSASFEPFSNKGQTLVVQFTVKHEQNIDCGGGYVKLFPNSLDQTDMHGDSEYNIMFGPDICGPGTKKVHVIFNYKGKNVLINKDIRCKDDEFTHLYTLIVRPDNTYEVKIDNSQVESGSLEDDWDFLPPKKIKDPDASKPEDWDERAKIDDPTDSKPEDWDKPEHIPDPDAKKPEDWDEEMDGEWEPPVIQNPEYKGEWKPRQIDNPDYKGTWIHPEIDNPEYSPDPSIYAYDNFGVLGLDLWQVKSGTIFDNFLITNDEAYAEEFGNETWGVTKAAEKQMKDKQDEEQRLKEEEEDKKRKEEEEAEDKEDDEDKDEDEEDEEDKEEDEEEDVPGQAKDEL

T2: full-length CRT fused at the C-terminus to the Fc domain of human Ig (human, UniProt P27797 18-417)
T2 sequence: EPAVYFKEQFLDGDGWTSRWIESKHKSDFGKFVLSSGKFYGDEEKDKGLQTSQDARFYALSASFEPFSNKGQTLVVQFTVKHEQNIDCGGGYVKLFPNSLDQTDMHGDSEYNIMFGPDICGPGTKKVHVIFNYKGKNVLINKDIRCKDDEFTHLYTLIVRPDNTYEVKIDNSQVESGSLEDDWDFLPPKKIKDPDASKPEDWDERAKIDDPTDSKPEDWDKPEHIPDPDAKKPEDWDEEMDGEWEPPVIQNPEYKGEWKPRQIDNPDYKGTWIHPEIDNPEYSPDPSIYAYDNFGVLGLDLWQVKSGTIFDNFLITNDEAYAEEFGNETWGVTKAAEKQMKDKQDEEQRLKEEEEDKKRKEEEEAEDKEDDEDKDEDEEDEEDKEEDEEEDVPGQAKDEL


Experiments:
Assay in all cases: MST
human CD4-His tag = human CD4-His tag (human, UniProt P01730)
His-tagged CRT = molecular target: T1, His-tagged CRT
[1] = molecular target: T2, full-length CRT fused at the C-terminus …

Binder	binding result (human CD4-His tag)	Kd (His-tagged CRT) [µM]	Kd [1] [µM]
Alexa647-labeled NKp46-Fc (Fc fusion, Alexa647 label) QQQTLPKPFIWAEPHFMVPKEKQVTICCQGNYGAVEYQLHFEGSLFAVDRPKPPERINKVQFYIPDMNSRMAGQYSCIYRVGELWSEPSNLLDLVVTEMYDTPTLSVHPGPEVISGEKVTFYCRLDTATSMFLLLKEGRSSHVQRGYGKVQAEFPLGPVTTAHRGTYRCFGSYNNHAWSFPSEPVKLLVTGDIENTSLAPEDPTFPADTWGTYLLTTETGLQKDHALWDHTAQNLLR	binds	12.3 ± 2.4	–
Myc-tagged extracellular domain of NKp46 (domain or fragment, Alexa647 label (in the MST only)) QQQTLPKPFIWAEPHFMVPKEKQVTICCQGNYGAVEYQLHFEGSLFAVDRPKPPERINKVQFYIPDMNSRMAGQYSCIYRVGELWSEPSNLLDLVVTEMYDTPTLSVHPGPEVISGEKVTFYCRLDTATSMFLLLKEGRSSHVQRGYGKVQAEFPLGPVTTAHRGTYRCFGSYNNHAWSFPSEPVKLLVTGDIENTSLAPEDPTFPADTWGTYLLTTETGLQKDHALWDHTAQNLLR	–	–	28.7 ± 8.3
